Laboratory results from the supplement of paper PMC12217912.
This is one part of the list. Sequences were assembled here from the parent chain. Values near 0.05 are background.

B1: TEV protease; numbered along this chain (parent)
chain: MGESLFKGPRDYNPISSSICHLTNESDGHTTSLYGIGFGPFIITNKHLFRRNNGTLVVQSLHGVFKVKDTTTLQQHLVDGRDMIIIRMPKDFPPFPQKLKFREPQREERICLVTTNFQTKSMSSMVSDTSCTFPSGDGIFWKHWIQTKDGQCGSPLVSTRDGFIVGIHSASNFTNTNNYFTSVPKNFMELLTNQEAQQWVSGWRLNADSVLWGGHKVFMVKPEEPFQPVKEATQL

Variants of: B1
Assay: raw area under fraction-flipped curve 0-4 h after induction (AUC4h, not background-subtracted), DNA-recorder readout of cleavage of the substrate (dimensionless); higher = more cleavage of the substrate by the protease variant
Details: temperature: 34 °C; time window: 0-4 h after rhamnose induction
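Also: Bxb1 expression induced with 0.2% (w/v) L-rhamnose at OD600 near 0.5, cultures sampled hourly, flipped fraction per protease–substrate barcode pair counted by paired-end Illumina sequencing.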

| Variant | area with substrate ENLYFCS | area with substrate ENLYFDS | area with substrate ENLYFES | area with substrate ENLYFFS | area with substrate ENLYFHS | area with substrate ENLYFIS | area with substrate ENLYFKS | area with substrate ENLYFLS | area with substrate ENLYFMS | area with substrate ENLYFNS | area with substrate ENLYFPS | area with substrate ENLYFRS | area with substrate ENLYFSS | area with substrate ENLYFTS | area with substrate ENLYFVS | area with substrate ENLYFYS | area with substrate ENLYFWS | area with substrate ENLYFGS | area with substrate ENLYFAS |
| --- | --- | --- | --- | --- | --- | --- | --- | --- | --- | --- | --- | --- | --- | --- | --- | --- | --- | --- | --- |
| R106D | 0.0627 | 0.0637 | 0.064 | 0.0814 | 0.0618 | 0.0572 | 0.0682 | 0.0649 | 0.0728 | 0.0689 | 0.0563 | 0.0523 | 0.065 | 0.0544 | 0.0681 | 0.0641 |  |  |  |
| G80K | 0.0586 | 0.0643 | 0.0663 | 0.0636 | 0.03 | 0.0659 | 0.0569 |  | 0.06 |  | 0.0507 | 0.0539 |  | 0.0612 | 0.0625 |  | 0.0422 |  |  |
| T30C | 0.0619 | 0.0549 | 0.0661 | 0.0616 |  | 0.0495 |  | 0.055 | 0.0665 | 0.0528 | 0.0567 | 0.0587 |  |  | 0.0535 | 0.0579 | 0.0494 | 0.0598 |  |
| M88Q | 0.0603 | 0.0562 | 0.0517 |  |  | 0.0544 |  |  |  | 0.072 | 0.0608 | 0.0753 | 0.0569 | 0.0643 | 0.0414 |  |  | 0.0684 |  |
| K221R | 0.0496 | 0.0629 | 0.0625 | 0.0703 | 0.0553 | 0.055 | 0.0651 |  | 0.0608 | 0.066 | 0.0561 | 0.0547 | 0.0656 | 0.0586 | 0.0158 | 0.0651 | 0.0456 |  | 0.0536 |
| E103G | 0.0548 |  | 0.0456 | 0.0722 | 0.0727 | 0.0659 | 0.0583 | 0.0607 | 0.0645 | 0.11 | 0.0588 | 0.0645 | 0.0591 | 0.0524 | 0.0568 | 0.0537 | 0.0602 | 0.0598 |  |
| L48M | 0.0589 |  | 0.0652 | 0.0689 |  | 0.0428 | 0.0537 | 0.0606 | 0.0679 |  | 0.0493 | 0.0608 | 0.0569 | 0.0553 |  | 0.0623 | 0.0557 | 0.0562 |  |
| W203A | 0.0537 |  | 0.0524 | 0.0573 | 0.0503 |  |  | 0.0623 | 0.0559 | 0.0461 | 0.0687 | 0.0534 | 0.0415 |  | 0.0122 |  |  |  | 0.0543 |
| K46S | 0.0747 | 0.0493 | 0.0653 | 0.0699 | 0.0592 | 0.0573 | 0.058 |  | 0.0588 |  | 0.0616 | 0.0605 | 0.054 | 0.0592 | 0.0683 |  | 0.0618 | 0.0571 |  |
| S32I | 0.0543 |  | 0.0625 | 0.0531 |  | 0.0602 | 0.0705 | 0.0594 | 0.071 | 0.0711 | 0.0628 |  |  | 0.0662 |  |  | 0.0681 | 0.0729 |  |
| S32P | 0.0561 | 0.0315 | 0.0632 | 0.046 | 0.0509 | 0.0564 | 0.0653 | 0.0577 | 0.0557 | 0.035 | 0.0538 | 0.0711 | 0.0502 | 0.0587 | 0.0535 | 0.0536 |  | 0.0482 |  |
| S32Y | 0.0632 | 0.0444 |  | 0.0529 | 0.0722 | 0.0473 | 0.0639 |  | 0.0678 | 0.0584 | 0.056 | 0.0558 | 0.0741 | 0.0632 | 0.0534 |  | 0.063 | 0.06 |  |
| unchanged | 0.0593 | 0.0591 | 0.0657 | 0.0683 | 0.0605 | 0.0572 | 0.0614 | 0.0602 | 0.0671 | 0.0643 | 0.059 | 0.0595 | 0.0592 | 0.0596 | 0.0549 | 0.0579 | 0.0577 | 0.0593 | 0.0596 |
| T72G | 0.0539 | 0.0605 | 0.0666 | 0.0665 |  | 0.0523 | 0.0558 |  | 0.0733 |  | 0.0611 | 0.0601 |  |  | 0.0541 | 0.0567 | 0.0634 | 0.0616 |  |
| P222H | 0.0544 | 0.0655 | 0.0626 | 0.066 | 0.0541 | 0.0589 | 0.0739 | 0.0592 | 0.0593 |  | 0.0651 |  |  | 0.063 |  |  | 0.0606 |  | 0.0592 |
| E224A | 0.0636 |  | 0.0574 | 0.0705 | 0.0552 | 0.0628 |  | 0.0511 | 0.0695 | 0.0643 | 0.0611 | 0.0565 | 0.0566 | 0.0622 | 0.0553 | 0.0554 | 0.058 |  | 0.0635 |
| E224C |  | 0.0385 | 0.0627 | 0.0655 |  | 0.0534 | 0.0604 | 0.0479 | 0.04 | 0.0693 | 0.0604 |  |  | 0.0442 |  |  | 0.0616 |  | 0.0723 |
| E224S |  | 0.0615 | 0.0645 | 0.0655 | 0.0707 | 0.054 |  | 0.0643 |  | 0.0574 | 0.0544 | 0.0504 | 0.0779 | 0.0483 |  |  | 0.051 |  | 0.0588 |
| E224V | 0.057 | 0.0594 | 0.0591 | 0.0649 |  | 0.058 | 0.0814 |  | 0.0774 |  | 0.052 | 0.053 |  |  | 0.071 |  | 0.0553 | 0.0607 | 0.0646 |
| E224N |  | 0.047 | 0.0524 | 0.0783 | 0.0582 | 0.0739 | 0.0613 | 0.0651 | 0.066 | 0.0651 | 0.0799 | 0.058 | 0.06 | 0.0692 |  | 0.0428 | 0.0591 | 0.0543 | 0.0425 |
| E224W | 0.0374 | 0.0544 | 0.0722 | 0.0648 | 0.0581 | 0.0588 | 0.0611 | 0.0675 | 0.0616 | 0.0554 | 0.0583 | 0.0541 | 0.0608 | 0.069 |  | 0.0577 | 0.0614 | 0.0352 | 0.0522 |
| V64W | 0.0499 |  | 0.078 |  | 0.0628 | 0.0547 | 0.0603 | 0.0325 |  |  | 0.0574 | 0.0595 |  |  |  | 0.0634 | 0.0568 |  |  |
| V64T | 0.0592 |  |  | 0.0586 | 0.0539 | 0.0344 |  |  | 0.0603 |  |  |  | 0.0522 | 0.0527 | 0.0708 | 0.0577 | 0.0471 |  |  |
| L56M | 0.0545 |  |  | 0.0654 | 0.0645 | 0.0538 | 0.043 |  | 0.0641 | 0.0671 | 0.0606 | 0.0574 | 0.0628 | 0.0658 |  | 0.0644 |  | 0.0579 |  |
